Results: PubChem BioAssay AID1963576 (National Center for Advancing Translational Sciences (NCATS), 2024)
Screen size: about 46,000 compounds; about 60 (0.1%) were called active. Roughly 3% stayed inconclusive and do not appear here. The call rests on the fitted dose curve; in most records, active means well fitted inhibition curve with a large enough effect; inconclusive means small, poorly fitted or top-dose-only effect; inactive means no such curve, though single readings can be large or run the other way. This is one part of the list.

Test: Primary qHTS assay for Inhibitors of ovarian cancer metastasis using an organotypic tumor microenvironment (TME) model. Further: nearly all actives have a fitted effect of over 65% in size.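 On activity change, negative = inhibition: plate controls were DMSO wells for no effect and tomatine positive control wells for full effect.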
Settings: SKOV3ip1-GFP adhesion/invasion on 3D omental model, fluorescence; series mostly up to 45.8 µM; activity change, negative = inhibition: at the top concentration
Procedure, shortened: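 Adhesion/invasion was scored as fixed GFP-labeled SKOV3ip1 cell counts (488/509 nm), normalized to DMSO and tomatine controls. Cancer cells in serum-free medium, with four compound doses (0.36-46 umol/L), sat 2 hr at RT then 16 hr at 37 C on a 48 hr fibroblast/mesothelial/ECM culture.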

Activity change, negative = inhibition, inactive:
CCN(CCN(C)C)C(=O)Cn1ncc2c([nH]c3ccc(C)cc32)c1=O 3.98%, CN1CCN(c2c(F)cc3c(=O)c(C(=O)O)cn4c3c2OCN4C)CC1 2.2%, Cc1ccc(Cn2c(CN3CCC(C(=O)NCc4cccnc4)CC3)cc3ccccc32)cc1 -6.93%, CCOc1ccc(CNC(=O)CCC(=O)N2Cc3ccccc3Oc3ncccc32)cc1 4.38%, Cc1ccc2nc(CSc3nnc(NC(=O)CC(C)C)s3)cc(=O)n2c1 -3.3%, COc1ccc(OC)c(NC(=O)C2CCCN(S(=O)(=O)c3ccc4[nH]c(=O)ccc4c3)C2)c1 (stereo not given) -4%, CN1CC(=O)N(CC(=O)Nc2cccc(C#N)c2)c2ccccc2C1=O -8.73%, O=C(Nc1ccccc1C(F)(F)F)C1(S(=O)(=O)c2ccc(Cl)cc2)CC1 -3.62%, CC(=O)c1cccc(NC(=O)CCS(=O)(=O)c2ccc3c(c2)n(C)c(=O)c(=O)n3C)c1 -4.12%, NC(=O)CSc1nc2cc3c(cc2c(=O)n1CCCCCC(=O)NCc1ccc2c(c1)OCO2)OCO3 3.02%, COc1ccc(OC)c(NC(=O)CSc2c3c(nc4cc(Cl)ccc24)CCCC3)c1 -3.78%, CN(C1CCCCC1)S(=O)(=O)c1ccc2c(c1)c(=O)c(C(=O)N1CCN(c3ccc(F)cc3)CC1)cn2C -9.71%, CCOCCCNC(=O)C(NC(=O)C1CCC(C)CC1)C(C)C (stereo not given) 4.71%, Cc1ccc(C(=O)c2cn(Cc3cc(C)ccc3C)c3nc(C)ccc3c2=O)cc1 54.1%, CCCCCCNC(=O)CCc1c(C)nc2nc(-c3cc(OC)cc(OC)c3)nn2c1C 8.56%, Cc1c(Cl)cccc1NC(=O)Nc1nnc(N(C)C2CCCCC2)s1 -0.528%, Cc1ccc(CCNC(=O)c2cnc3c(C)cccn3c2=O)cc1 -5.32%, CCOC(=O)N1CCN(Cc2nc3cc(NC(=O)c4ccc(F)cc4)ccc3n2C(C)C)CC1 -7.1%, COc1ccc(-c2cn3c(n2)sc2cc(C(=O)NCC(C)c4ccccc4)ccc23)cc1 (stereo not given) -1.05%, CC(=O)Nc1ccc(NC(=O)C(NC(=O)C2CCC(C)CC2)C(C)C)cc1 (stereo not given) 5.11%, CCc1ccccc1NC(=O)c1nn(-c2ccc(C)cc2)c(=O)c2c1c1ccccc1n2C -0.308%, CCS(=O)(=O)n1nc(-c2ccco2)nc1NCc1ccc(C(C)C)cc1 12.7%, CC(C)c1cc(C(=O)NCc2ccc(F)cc2)no1 3.12%, CCc1ccc(Cn2nnc3c(=O)[nH]c(C4CCCN(C(=O)c5cccc(Cl)c5)C4)nc32)cc1 (stereo not given) -2.23%, Cc1ccc(-n2cnc3cc(C(=O)NC4CCCCCC4)ccc32)c(C)c1 -1.84%, CN(C)CCOc1ccc(C(=C(CCCl)c2ccccc2)c2ccccc2)cc1 5.13%, COc1ccc(C)cc1NC(=O)C1CCC(CNS(=O)(=O)c2ccc3c(c2)CCCC(=O)N3)CC1 (stereo not given) 16%, COc1cc(CN(C(=O)c2ccccc2Br)c2ccccn2)cc(OC)c1OC -0.359%, COc1ccc(S(=O)(=O)NCCc2sc(-c3cccnc3)nc2C)cc1OC -5.68%, CC(C)c1ccc(OCC(=O)Nc2cc(-c3ccccc3)no2)cc1 0.42%, CC(=O)c1c(C)n(S(=O)(=O)c2ccc(Cl)cc2)c2ccc(NS(=O)(=O)c3ccc(Cl)cc3)cc12 -3.71%, CCN(CC)C(=O)c1sc2c(c1C)c(=O)n(CCc1ccccc1)c(=O)n2Cc1ccc(C)cc1 35.7%, CCOc1cc2c(cc1OCC)C(CC(=O)OC)N(C(=O)Nc1cc(OC)ccc1OC)CC2 (stereo not given) -4.55%, COc1ccc2c(c1)c(=O)c(S(=O)(=O)c1ccc(Cl)cc1)cn2Cc1cc(C)ccc1C 7.37%, Cc1ccc(C)c(N2CCN(C(=O)CCS(=O)(=O)c3ccc4c(c3)oc(=O)n4C)CC2)c1 4.19%, Cc1ccc(NC(=O)CN2C(=O)C(c3ccc(C)cc3)=NC23CCCCCC3)cc1 -6.39%, CCc1ccc(NC(=O)c2cccc(N3CCCS3(=O)=O)c2)cc1 3.95%, CCN1CCSc2ccc(C(=O)NCc3ccc(F)cc3)cc21 -11.6%, CCCCNC(=O)c1cc(-c2cccnc2)nc2ccc(S(=O)(=O)NCCCC)cc12 -3.19%, COc1ccc(NCc2cccn2-c2nnc(N3CCOCC3)s2)cc1OC -9.2%, Cc1ccc(CNC(=O)CCSCc2cnn(-c3ccccc3)c2-n2cccc2)cc1 1.03%, COCCCNC(=O)c1nn(C)c2c1CS(=O)(=O)c1ccccc1-2 0.214%, CCc1cccc(NC(=O)Cc2nc(-c3ccc(OC)cc3)no2)c1 8.54%, O=C(CSc1nnc2[nH]c(=O)cc(-c3ccccc3)n12)Nc1ccc(OC(F)(F)F)cc1 -5.21%, COCc1cc(C)nc2sc3c(c12)NC(c1ccccc1C(=O)O)N(c1cccc(C(F)(F)F)c1)C3=O (stereo not given) -8.34%, COc1ccc(-c2cn3c(n2)sc2cc(C(=O)NC(C)C45CC6CC(CC(C6)C4)C5)ccc23)cc1 (stereo not given) -3.2%, Cc1cc(=O)n(Cc2c(F)cccc2Cl)c2c1c(C)nn2-c1cccc(F)c1 -1.95%, CCCSc1ncc(Cl)c(C(=O)Nc2sc(C(C)=O)c(C)c2C(=O)OCC)n1 13.7%, O=C(Cc1ccc(Cl)cc1)NCC(c1cccs1)S(=O)(=O)c1ccccc1 (stereo not given) -4.59%, CCOC(=O)C1CCN(S(=O)(=O)c2cc3c4c(c2)C(C)C(=O)N4CCC3)CC1 (stereo not given) -1.43%, CCn1ccc2c(OCC(=O)Nc3ccc(C)c(Cl)c3)cccc2c1=O 0.637%, CCN(CC)c1cc(C)c2cc(NC(=O)c3cc(OC)cc(OC)c3)ccc2n1 4.75%, CCOC(=O)c1ccccc1NC(=O)NCc1c(-n2cccc2)sc2c1CCCC2 4.22%, CCCCCCCCCCCCc1ccc(S(=O)(=O)Nc2nncs2)cc1 -13.2%, Cc1c(CNC(C)CCc2ccccc2)c(C(=O)O)c(C)n1Cc1ccc(F)cc1 (stereo not given) -1.77%, COc1ccc(NC(=O)CSc2oc(-c3ccco3)nc2S(=O)(=O)c2ccc(C)cc2)c(OC)c1 1.11%, Cc1ccc(C)c(NC(=O)CSc2nnc3[nH]c(=O)cc(-c4ccccc4)n23)c1 2.35%, CC(=O)Nc1ccc(NC(=O)c2cc(CN3CCCC3)on2)cc1 12.2%, Cc1ccc(CN2CCCn3nc(C(=O)NCc4ccc(N(C)C)cc4)cc3C2=O)cc1 -14.2%, COc1ccc(CCNc2nc3c(-c4cccc(C(F)(F)F)c4)nnn3c3ccccc23)cc1OC 6.19%, O=C(Nc1ccccc1-c1nc2ccccc2s1)c1ccc(F)cc1 4.28%, CCC(=O)N1CCc2cc(S(=O)(=O)NCCC(=O)Nc3ccc(CC)cc3)ccc21 1.17%, CC(C)CNC(=O)Nc1cc(C(=O)NCc2ccc(C(C)C)cc2)ccc1N1CCCC1 2.29%, CCOc1ccc(NC(=O)c2cc3cc(C)ccc3n2C)cc1 7.66%, CC1CCN(c2nc(-c3ccc(C(C)(C)C)cc3)nc3ccccc23)CC1 -5.26%, COc1ccc(CCNC(=O)c2c(O)nc3ccccn3c2=O)cc1OC -3.82%, CCOc1ccc2nc(N3CCCC(C(=O)Nc4ccc(OC)cc4)C3)sc2c1 (stereo not given) 36.9%, O=C(CC1N=C2c3ccccc3N=C(SCC(=O)Nc3ccc(F)cc3)N2C1=O)NCc1ccco1 (stereo not given) 2.81%, CCOc1ccc(NC(=O)c2oc3ccccc3c2NC(=O)C(C)(C)C)cc1 15.5%, COc1ccccc1NC(=O)CSc1oc(-c2ccco2)nc1S(=O)(=O)c1ccc(C)cc1 -3.01%, CCc1nn2c(=O)cc(COC(=O)c3ccc(NC(=O)COc4ccccc4C)cc3)nc2s1 10.7%, Cc1ccc(C(=O)Nc2nnc(S(=O)(=O)N(C)Cc3ccc(Cl)cc3)s2)cc1 -1.81%, COc1cc(Nc2ncc3c(n2)CCN(Cc2ccc(OC(C)C)c(OC)c2)C3)cc(OC)c1 -13.9%, Cc1ccccc1OC(=O)c1cc(-c2ccc3c(c2)OCCO3)on1 5.41%, COc1ccc(NC(=O)C2CCN(C3=NS(=O)(=O)C(c4ccc(C)c(C)c4)=C3C)CC2)c(OC)c1 0.159%, Cc1ccc(NC(=O)N2CC3CCCN3c3ccccc32)cc1Cl (stereo not given) -23.9%

outcome, inactive:
O=C(Nc1ccc(F)cc1)c1ccc(CN2CC(=O)N3CCCCC3C2=O)cc1 (stereo not given), Cc1cc(C)cc(NC(=O)Cn2nc(N3CCN(c4ccccc4)CC3)ccc2=O)c1, COc1ccc(CNC(=O)Cn2ncc3c(=O)oc4ccccc4c32)c(OC)c1, Cc1csc2nc(COC(=O)c3cccc(NC(=O)COc4ccccc4Cl)c3)cc(=O)n12, COc1cc([N+](=O)[O-])ccc1NC(=O)c1nc2ccccc2n(C)c1=O, COc1ccc(CNC(=O)CC2N=C3c4ccccc4N=C(SCC(=O)Nc4ccc(C(C)C)cc4)N3C2=O)cc1 (stereo not given), COC(=O)CCCn1c(-c2ccc(C)cc2)c(C)n2c3c(=O)n(C)c(=O)n(C)c3nc12, Cc1ccc(S(=O)(=O)N(CC(=O)Nc2ccc(F)cc2F)Cc2ccc(F)cc2)cc1, Cc1cccc(C(=O)Nc2c(C(=O)N3CCN(c4ccc(F)cc4)CC3)oc3ccccc23)c1, Cc1onc(-c2ccccc2Cl)c1C(=O)Oc1ccccc1F, CC(C)(C)OC(=O)N1CCC(N2CCN(Cc3ccccc3)C(=O)C2=O)CC1, CCOc1ccc(NC(=O)C(CC(C)C)N2Cc3ccccc3C2=O)cc1 (stereo not given), CN(C)S(=O)(=O)c1ccc2c(c1)N(CC(=O)Nc1cccc(C(F)(F)F)c1)C(=O)CS2, CCOc1ccc(NC(=O)Cn2c(=O)n(CC3CCC(C(=O)NCCc4ccccc4)CC3)c(=O)c3ccccc32)cc1 (stereo not given), COc1ccccc1C(=O)Nc1cccc(C(=O)OCc2cc(=O)n3c4c(sc3n2)CCCC4)c1, COc1cc(C(=O)NC(c2ccccc2Cl)c2cc(Cl)c3cccnc3c2O)cc(OC)c1OC (stereo not given), Clc1ccc(-c2cc3ncc4c(n3n2)-c2ccccc2OC4)cc1, O=C(CSc1nc2ccsc2c(=O)n1-c1ccc(Cl)cc1)NCc1ccc(Cl)cc1, COc1ccc(NC(=O)c2csnn2)cc1Cl
